This is an account of results in patent US12186310B2, “Antibody-drug conjugate” (DAIICHI SANKYO COMPANY, LIMITED, priority 2012, dated 2025).

In data set [1] the test system is Human melanoma line A375 cells. Briefly: Antitumor test (4), subcutaneously transplanted A375. In kind it is in vivo, mouse. On the procedure:
(§1) Mouse: 5- to 6-week-old female BALB/c nude mice (Charles River Laboratories Japan, Inc.) were acclimatized for 4 to 7 days under SPF conditions before use in the experiment. The mice were fed with sterilized solid feed (FR-2, Funabashi Farms Co., Ltd) and given sterilized tap water (prepared by the addition of 5 to 15 ppm sodium hypochlorite solution).
(§2) Assay and calculation expression: In all studies, the major axis and minor axis of tumor were measured twice a week by using an electronic digital caliper (CD-15C, Mitutoyo Corp.), and the tumor volume (mm^3) was calculated. The calculation expression is as shown below. Tumor volume (mm^3)=½×Major axis (mm)×[Minor axis (mm)]^2
Human melanoma line A375 cells were purchased from ATCC (American Type Culture Collection). 8×10^6 cells suspended in physiological saline were subcutaneously transplanted to the right abdomen of each female nude mouse (Day 0), and the mice were randomly grouped at Day 21. The antibody-drug conjugates (1), (13), (41), and (55) were each intravenously administered at a dose of 10 mg/kg to the tail of each mouse at Day 21.

The subject of data set [2] is Human non-small cell lung cancer line Calu-6 cells. Briefly: Antitumor test (5), subcutaneously transplanted Calu-6. In kind it is in vivo, mouse. On the procedure: as §1, §2
Human non-small cell lung cancer line Calu-6 cells were purchased from ATCC (American Type Culture Collection). 5×10^6 cells suspended in physiological saline were subcutaneously transplanted to the right abdomen of each female nude mouse (Day 0), and the mice were randomly grouped at Day 12. The antibody-drug conjugates (13), (41), and (55) were each intravenously administered at a dose of 10 mg/kg to the tail of each mouse at Day 12. As a comparative control, DE-310 was intravenously administered at a dose of 0.1 mg/kg to the tail of each mouse at Day 12. […]

Data set [3] in a line: Released compound confirmed in the tumor of a cancer-bearing mouse that received the antibody-drug conjugate. Conditions: released compound: 4-amino-N-[...]butanamide of Example 1.
Data set [4] has as its system Human melanoma line A375 cells. Briefly: Antitumor test (6), subcutaneously transplanted A375. In kind it is in vivo, mouse. On the procedure:
as §1, §2
Human melanoma line A375 cells were purchased from ATCC (American Type Culture Collection). 1×10^7 cells suspended in physiological saline were subcutaneously transplanted to the right abdomen of each female nude mouse (Day 0), and the mice were randomly grouped at Day 11. The antibody-drug conjugates (17), (18), (19), (59), (60), and (61) were each intravenously administered at a dose of 3 mg/kg to the tail of each mouse at Days 11 and 18 in a schedule of qw×2.

B1: antibody-drug conjugate (13): M30-H1-L4P antibody conjugated with compound of Process 1 of Example 14; average drug molecules per antibody 3.4 (conjugate)
heavy: QVQLVQSGAEVKKPGSSVKVSCKASGYTFTNYVMHWVRQAPGQGLEWMGYINPYNDDVKYNEKFKGRVTITADESTSTAYMELSSLRSEDTAVYYCARWGYYGSPLYYFDYWGQGTLVTVSSASTKGPSVFPLAPSSKSTSGGTAALGCLVKDYFPEPVTVSWNSGALTSGVHTFPAVLQSSGLYSLSSVVTVPSSSLGTQTYICNVNHKPSNTKVDKRV[not shown - human IgG1 Fc]
light: EIVLTQSPATLSLSPGERATLSCRASSRLIYMHWYQQKPGQAPRPLIYATSNLASGIPARFSGSGSGTDFTLTISSLEPEDFAVYYCQQWNSNPPTFGQGTKVEIKRTVAAPSVFIFPPSDEQLKSGTASVVCLLNNFYPREAKVQWKVDNALQSGNSQESVTEQDSKDSTYSLSSTLTLSKADYEKHKVYACEVTHQGLSSPVTKSFNRGEC
In the case of B1, the tumor volume entry is “remarkably decreased the tumor volume” in data set [1] (A375 subcutaneous, female nude mice, 10 mg/kg intravenously at Day 21, FIG. 20) and “remarkably decreased the tumor volume” in data set [2] (Calu-6 subcutaneous, female nude mice, 10 mg/kg (amount of the antibody) intravenously at Day 12, FIG. 21). The “notable signs such as weight loss” value in data set [1] (mice that received 10 mg/kg intravenously at Day 21) and in data set [2] (mice that received 10 mg/kg intravenously at Day 12) was “free from notable signs such as weight loss” each time. Also, the “compound of Example 1 confirmed in the tumor of a cancer-bearing mouse that received the conjugate” value in data set [3] is given as “confirmed in the tumor”.

B2: antibody-drug conjugate (17): M30-H1-L4P antibody conjugated with compound of Process 1 of Example 14; average drug molecules per antibody 3.5 (conjugate)
heavy: QVQLVQSGAEVKKPGSSVKVSCKASGYTFTNYVMHWVRQAPGQGLEWMGYINPYNDDVKYNEKFKGRVTITADESTSTAYMELSSLRSEDTAVYYCARWGYYGSPLYYFDYWGQGTLVTVSSASTKGPSVFPLAPSSKSTSGGTAALGCLVKDYFPEPVTVSWNSGALTSGVHTFPAVLQSSGLYSLSSVVTVPSSSLGTQTYICNVNHKPSNTKVDKRV[not shown - human IgG1 Fc]
light: EIVLTQSPATLSLSPGERATLSCRASSRLIYMHWYQQKPGQAPRPLIYATSNLASGIPARFSGSGSGTDFTLTISSLEPEDFAVYYCQQWNSNPPTFGQGTKVEIKRTVAAPSVFIFPPSDEQLKSGTASVVCLLNNFYPREAKVQWKVDNALQSGNSQESVTEQDSKDSTYSLSSTLTLSKADYEKHKVYACEVTHQGLSSPVTKSFNRGEC
As for B2, in data set [4] (A375 subcutaneous, female nude mice, 3 mg/kg intravenously at Days 11 and 18 (qw×2), FIG. 22), the tumor volume entry is reported as “remarkably decreased the tumor volume”. Moreover, the “notable signs such as weight loss” value in data set [4] (mice that received 3 mg/kg intravenously at Days 11 and 18) is reported as “free from notable signs such as weight loss”.
